Among the data in PubChem BioAssay AID485344 (National Center for Advancing Translational Sciences (NCATS), 2010) are inhibition values, retold here.

Among all 340,000 compounds or so, about 6,900 (2%) were called active. Rule as the data show it: active = inhibition above about 30%; inactive = below that, where a call was filed. Only a part is listed here, and it is no random draw. The source gives no active or inactive call for entries shown without one.

Sequence of UniProt P14416 (P14416 whole entry, looked up): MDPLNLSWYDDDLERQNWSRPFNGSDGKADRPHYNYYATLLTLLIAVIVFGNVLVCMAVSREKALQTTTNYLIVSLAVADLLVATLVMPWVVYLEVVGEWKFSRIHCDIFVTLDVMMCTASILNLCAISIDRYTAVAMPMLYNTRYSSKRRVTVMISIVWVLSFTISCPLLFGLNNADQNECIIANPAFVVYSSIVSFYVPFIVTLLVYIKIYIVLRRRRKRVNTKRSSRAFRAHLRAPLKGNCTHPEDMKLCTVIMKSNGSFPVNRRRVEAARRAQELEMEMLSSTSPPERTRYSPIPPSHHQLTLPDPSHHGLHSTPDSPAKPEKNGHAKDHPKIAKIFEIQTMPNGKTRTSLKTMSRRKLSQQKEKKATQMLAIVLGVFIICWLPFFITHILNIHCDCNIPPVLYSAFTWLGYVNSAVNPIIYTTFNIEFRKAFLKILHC

In this assay the target is D(2) dopamine receptor (Homo sapiens) (UniProt P14416). The experiment in a line: HTS Assay for Allosteric Antagonists of the Human D2 Dopamine Receptor: Primary Screen for Antagonists. Also: 0% is about no effect. As to conditions: HEK293 TREx D2 cells, calcium flux, dopamine EC80; at 10 µM; stronger effect = higher value. In a few lines:
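Measurement of antagonist activity uses fluorescent calcium dye in inducible HEK293 T-REx D2 cells: 10 s baseline, compound addition with 180 s read, EC80 dopamine addition with a further 180 s read.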
The inhibition is the drop in the measured response relative to a control, in per cent. Turning to `Cc1nc2ccc(S(=O)(=O)NC(C(=O)NCc3ccco3)C(C)C)cc2s1` (configuration not stated), the inhibition was active: 31.5%.
For `COc1ccc(-c2nnc(C3CCN(C(=O)c4ccccc4F)CC3)o2)cc1` the value was -15.5%; for `Cc1cccc(NC(=O)C2CCN(c3nnc(-n4c(C)ccc4C)s3)CC2)c1C`, -0.0462%.
With `Cc1ccc(S(=O)(=O)NCCc2cn3c(C)csc3n2)cc1`, the inhibition was -5.96%.
Next, `COc1ccc(C2Sc3ccccc3NC3=C2C(=O)c2ccccc23)c(OC)c1OC` (configuration not stated): -6.85%; `CCOC(=O)Cn1cnc2c(nnn2-c2ccc(F)cc2)c1=O`: active: 31.9%.
Next, `Cc1ccc2nc(-c3cc(NC(=O)c4ccc5c(c4)OCCO5)ccc3Cl)oc2c1`: 22.4%; `COc1ccc(-c2onc(C)c2C)cc1S(=O)(=O)N1c2ccccc2CC1C` (configuration not stated): 0.0119%.
For `O=C(NCCc1csc(-c2ccc(Cl)cc2)n1)c1cccs1` the value was -3.83%.
As for `CCc1ccccc1NC(=O)Cn1c(-c2nonc2N)nc2ccccc21`, the inhibition is 0.485%.
For `COC(=O)c1c(NC(=O)CCCOc2ccc(C(C)(C)C)cc2)sc2c1CCC(C)C2` (configuration not stated) the value was -11.1%; for `COc1ccc(NC(=O)/C(C#N)=C/c2ccc(OCc3cc(=O)n4nc(C)sc4n3)cc2)cc1`, -2.06%; for `O=S(=O)(Nc1ccc2oc3c(c2c1)CCCC3)c1cc(Cl)ccc1Cl`, -13.5%.
Next, `CCN(C(=O)Cn1nc(Cc2cccnc2)c2ccccc2c1=O)c1ccccc1F`: 4.22%; `CNC(=S)NC1CC2CCC(C1)N2Cc1ccccc1` (configuration not stated): active: 63.6%; `CC(C)(C)c1ccc(OCc2nc(-c3ccccn3)no2)c(Br)c1`: active: 38.3%.
For `O=C(NCc1ccc(Cl)cc1)C(=O)Nc1ccc(Br)cc1` the value was -11.3%.
Consider `COc1ccc(OC2CCN(C(=O)Nc3ccc(C)cc3)CC2)cc1`, for which the inhibition is active: 49.6%.
For `CCc1cccc(NC(=O)Cn2c(=O)n(Cc3ccccc3)c(=O)c3c2c2cc(OC)ccc2n3C)c1` the value was 2.85%; for `CC(=O)c1cc2c(cc1NC(=O)c1c(C)nn(-c3ccc(C)cc3)c1-n1cccc1)OCO2`, 5.45%.
For `CC1CCN(Cc2c(O)ccc3c(=O)c(-c4cccc(Cl)c4)c(C(F)(F)F)oc23)CC1` the value was -7.25%; for `Cc1ccc(S(=O)(=O)Cc2nc(-c3ccc(C(=O)NCc4ccccc4)cc3)oc2C)cc1`, -11%; for `Cc1ccc(NC(=O)CSc2nc3ncccc3[nH]2)cc1F`, -24.2%.
For `O=C(Nc1cccc(Br)c1)N1CCC(CN2CCCCC2)CC1`, the inhibition was -9.92%.
With `COc1ccc(OCCn2cc(C(=O)C3CCCCC3)c3ccccc32)cc1`, the inhibition is -3.37%.
Consider `COc1ccccc1CN1CCN(Cc2ccc3ccccc3c2)CC1`, for which the inhibition was active: 67.7%.
For `O=C(c1ccc2c(c1)CCN2S(=O)(=O)c1ccccc1)N1CCN(c2ccc(F)cc2)CC1` the value was -14%; for `COc1cccc(N2CCN(C(=O)c3cnn(C(C)(C)C)c3C3CCN(C(=O)OC(C)(C)C)CC3)CC2)c1`, -3.87%.
For `CCOc1ccc(C(=O)Nc2c(C(=O)Nc3ccccc3F)oc3ccccc23)cc1OCC` the value was -17.1%; for `O=C(Cn1c(=O)n(-c2cccc(Cl)c2)c(=O)c2sc3ccccc3c21)N1CCCC1`, 16.2%; for `CC(=O)c1ccc(NC(=O)c2c3c(nc4ccccc24)C(=O)N(C2CCCCC2)C3)cc1`, 18.2%.
For the molecule `O=S1(=O)c2ccccc2N(Cc2ccccc2)c2ccccc21`, the inhibition amounted to 4.48%.
Next, `CCN(CC)CCCNC(=O)C1CCN(S(=O)(=O)CC)CC1`: 26.6%.
Next, `CCOC(=O)CN1C(=O)C(O)(CC(=O)c2cc(OC)ccc2OC)c2ccccc21` (configuration not stated): -17.1%; `Cc1cccc(-n2c(-c3ccccc3)cn3c4c(=O)[nH]c(=O)n(C)c4nc23)c1`: 1.99%.
For `Cn1cc(S(=O)(=O)c2ccccc2)c(=O)c2cc(F)c(N3CCN(c4ccccc4)CC3)cc21` the value was -0.128%; for `Cc1ccc(-c2cc(C(F)(F)F)n3nc(C(=O)Nc4ccc(Cl)c(C(F)(F)F)c4)cc3n2)cc1`, 13.1%.
Consider `Cc1cccc(C)c1OCC(=O)Nc1nc(-c2ccc(Br)cc2)ns1`, for which the inhibition is -7.98%.
Next, `Cc1cc(C)c(Cn2c3ccccc3c3cnn(CC(=O)N4CCCCCC4)c(=O)c32)c(C)c1`: 6.78%.
As for `Cc1ccc(-n2c(C)nc3c(cnn3-c3ccccc3C)c2=O)cc1F`, the inhibition came out at 1.46%.
For `CCc1ccc2oc(-c3ccc(NC(=O)c4ccc(OC)c(Br)c4)cc3)nc2c1` the value was 3.81%; for `Cc1cccc(Cn2cc(C(=O)Nc3ccc(F)c(C(F)(F)F)c3)ccc2=O)c1`, 23.6%.
As to `O=C(NCc1cccc(F)c1)c1ccc(-n2cnc3cccnc32)cc1`, the inhibition worked out at 2.37%.
Consider `CCn1c(=O)c2cc(C(=O)NCCc3cc(OC)ccc3OC)sc2c2ccccc21`, for which the inhibition is 12.5%.
Next, `CCCCN(CC)CCNC(=O)c1cc2c(=O)oc3ccc(C)cc3c2s1`: 10.8%; `O=C(c1ccc(F)cc1)N1c2nc(-c3ccco3)nn2C2(CCCCC2)[C@@H]2CCCC[C@@H]21`: -17.3%; `CCOc1ccc(OCC)c(NS(=O)(=O)c2cc(Br)cc3c2N(C(C)=O)C(C)C3)c1` (configuration not stated): -12.3%.
Next, `COc1ccc(-c2cc3nc(-c4ccc(C)cc4)cc(C(F)(F)F)n3n2)cc1`: 5.44%; `COc1ccccc1CNC(=O)CCCc1nnc2n(CC(C)C)c(=O)c3sccc3n12`: 7.12%; `CC(C)N(C(=O)CSc1nc2ccc(Cl)cc2[nH]1)c1ccccc1`: 6.66%.
For the molecule `COc1ccccc1CNC(=O)CCC1N=C2c3ccccc3N=C(SCc3cccc(Cl)c3)N2C1=O` (configuration not stated), the inhibition is -6.59%.
Take `Cc1c(C(=O)OC2CCCC2)[nH]c2c1C(=O)CC(c1ccc(Cl)cc1)C2` (configuration not stated): the inhibition turned out to be 5.19%.
Take `O=S(=O)(Nc1ccc(-c2ccc(N3CCCC3)nn2)cc1)c1ccc(Cl)cc1`: the inhibition was found to be 7.87%.
Turning to `CC(=O)N1CCc2c(sc3c2c(=O)n(-c2ccccc2)c(=O)n3CC(=O)Nc2cccc(C)c2)C1`, the inhibition is -8.06%.
For `CCOc1ccc(CNS(=O)(=O)c2c(C(=O)N3CCC(C)CC3)c(C)n(C)c2C)cc1OC` the value was -7.22%; for `CCC(=O)Nc1nnc(SCc2cc(=O)c3cc(C)ccc3[nH]2)s1`, 0.205%.
For `COc1ccc(S(=O)(=O)N(CCc2ccccc2)CC(=O)Nc2ccc(C)c(C)c2)cc1OC` the value was 13.5%; for `COCCCNC(=O)Cn1ncc2ccsc2c1=O`, active: 30.4%; for `Cc1cc(Br)ccc1N=C1C(=O)Nc2ccccc21`, active: 58.9%.
With `COC(=O)c1nnn(CC(=O)NC(=O)Nc2cccc(C)c2C)c1C(=O)OC`, the inhibition stood at 8.38%.
Next, `COc1ccc2c(c1)CCc1c(C(=O)Nc3ccc(F)c(Cl)c3)noc1-2`: 2.25%; `CCc1nc2ccc(C(=O)N3CCN(c4ccccc4)CC3)cc2nc1CC`: 9.76%; `CCOc1ccccc1NC(=O)C1CCCN(S(=O)(=O)c2c(C)[nH]c(=O)[nH]c2=O)C1` (configuration not stated): 6.4%.
In the case of `CCOc1ccc(-c2nonc2NC(=O)c2oc3ccc(Br)cc3c2C)cc1`, the inhibition is -1.37%.
`O=C(CSc1nnc(-c2ccccc2)c(-c2ccccc2)n1)NC1CCCCC1`: the inhibition came to 5.6%.
As to `Cc1ccc(N2CC(NC(=O)Cc3cccs3)CC2=O)cc1C` (configuration not stated), the inhibition came to 6.35%.
With `Cc1nc(N2C(=O)c3oc4ccccc4c(=O)c3C2c2cccc(OCCC(C)C)c2)sc1C` (configuration not stated), the inhibition turned out to be 12.7%.
For `CCOC(=O)N1CCc2c(sc(NCc3cccc(F)c3)c2C(=O)Nc2ccccc2OCC)C1` the value was 4.88%; for `CCc1ccc(OC(C)C(=O)N2CCC(c3nc4ccccc4s3)CC2)cc1` (configuration not stated), -2.16%; for `Cc1cc(C)cc(NC(=O)CCS(=O)(=O)c2cc3c4c(c2)CCN4C(=O)CC3)c1`, 5.55%.
As for `COc1ccccc1-c1cc2nc(C)c(CCC(=O)Nc3ccc(Br)c(C)c3)c(C)n2n1`, the inhibition was -7.02%.
Consider `O=C(NC1(C(F)(F)F)C(=O)Nc2c1c(=O)[nH]c(=O)n2CCc1ccccc1)c1ccc(Cl)cc1Cl` (configuration not stated), for which the inhibition was 11.3%.
Next, `CCn1cc(C(=O)N2CCN(c3cccc(C(F)(F)F)c3)CC2)c2cc(OC)c(OC)cc2c1=O`: -19.5%.
For the molecule `Cc1cc(C)c(C#N)c(N2CCN(Cc3ccccc3)CC2)n1`, the inhibition is active: 73.8%.
Take `CC(C)CN(CCCNC(=O)Cn1ncc2c3ccccc3n(C)c2c1=O)CC(C)C`: the inhibition amounted to 2.2%.
`CCOC(=O)c1cc(-c2ccccc2)n(CC(=O)NC(C)c2ccccc2)c1C` (configuration not stated): the inhibition was -6.57%.
For `Cc1ccc(CNC(=O)c2cc3c(s2)-c2ccccc2SC3)cc1` the value was -25.2%; for `CCOC(=O)c1ccc(NC(=O)Nc2c[nH]c(=O)[nH]c2=O)cc1`, 7.96%; for `COc1ccc(Cl)cc1NC(=O)CCS(=O)(=O)c1nc(-c2cccs2)cc(C(F)(F)F)n1`, -5.41%.
For `Cc1ccc2c(c1)C(C)CC(C)(C)N2C(=O)CN1CCN(C)CC1` (configuration not stated) the value was active: 36.2%; for `Cc1ccc(-n2nc(CO)c(C(=O)NCc3ccccn3)n2)cc1C`, 3.59%; for `CC1CCn2c(nc3cc(C(=O)NCCc4ccc(Cl)cc4)ccc32)C1` (configuration not stated), -1.95%.
For `COc1ccc(N2CC(NC(=O)COc3ccccc3)CC2=O)cc1OC` (configuration not stated) the value was -26.9%; for `CCOC(=O)c1cnc2ccc(OC)cc2c1NCCc1ccccc1`, -11.7%; for `Cn1c(=O)c2c(SCC(=O)NCc3ccco3)nc(-c3ccccc3)nc2n(C)c1=O`, 24.8%.
On to `CN(c1ncnc2onc(-c3cccc(Cl)c3)c12)C1CCCCC1`, for which the inhibition was -10.5%.
In the case of `CCc1ccc(-n2nc3cc(C)c(NC(=O)c4cccc5ccccc45)cc3n2)cc1`, the inhibition stood at 3.89%.
For the molecule `Cc1cccc(CNC(=O)Cn2nc(C)n3c(cc4cc(F)ccc43)c2=O)c1`, the inhibition came out at 4.11%.
For `Cc1ccc(-n2c(=O)c3c(C)c(C(=O)N(C)C)sc3n(CC(=O)C(C)(C)C)c2=O)cc1C` the value was 13.7%; for `COc1ccc(CN2CCC(C(=O)c3ccc(F)cc3)CC2)cc1`, active: 78.5%; for `O=c1cc(-c2ccccc2)n2c(SCc3ccccc3)nnc2[nH]1`, 4.73%.
For `CCc1ccc(-n2nc(C)c3c(C)cc(=O)n(CC(=O)N4CCCc5ccccc54)c32)cc1` the value was 14.6%; for `CCOC(=O)c1noc2ncn(CC(=O)Nc3ccc(C)c(F)c3)c(=O)c12`, 5.44%.
As to `Cc1cccc(NC(=O)CCS(=O)(=O)c2ccc3c(c2)n(C)c(=O)c(=O)n3C)c1C`, the inhibition is -5.24%.
As for `CCOC(=O)C1CCCN(C(=O)c2nn(-c3ccc(OC)cc3)c(=O)c3c2c2ccccc2n3C)C1` (configuration not stated), the inhibition is -12.4%.
For `CC(=O)OC(C)CS(=O)(=O)c1ccccc1` (configuration not stated) the value was active: 30.2%; for `CCc1cccc(NC(=O)C2CCN(C(=O)c3cnn(-c4ccccc4)c3-n3cccc3)CC2)c1`, 6.82%.
